Laboratory results taken from PubChem BioAssay AID651820 (National Center for Advancing Translational Sciences (NCATS), 2012).
Where “and” joins values, the source holds several entries; their conditions need not be identical. Identical values can stand only once. In all, about 340,000 compounds went through this assay and about 12,000 (3.5%) were called active. Inconclusive results, whose numbers are uncertain, are shown with a selection of clear calls. Calls come from the whole dose curve; as a rule, active = well fitted inhibition curve with a large enough effect; inconclusive = small, poorly fitted or top-dose-only effect, or another doubt; inactive = no such curve, though single readings can be large or run the other way. A potency beside an inconclusive call is a rough fit, not a confirmed value.

Experiment: qHTS Assay for Inhibitors of Hepatitis C Virus (HCV)
Conditions: Huh7.5.1 HCVcc-Cre (HCVcc is cell-culture hepatitis C virus) infection, luciferase reporter, 44 h; activity change, negative = inhibition: at 41.8 µM (top of the series)
In short: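 Luciferase read-out (15 sec integration) after a 15 min room-temperature substrate step quantifies HCVcc-Cre infection. Cells, 1,000 per well, had compound added 4 h post-plating, then virus at ~0.5 moi, and were cultured 44 h.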
% is set by controls: 0 for no effect and ±100 for the full control effect; potency is the fitted concentration of half-maximal effect; tags give direction and shape of the fitted curve.

With COc1cc2ccccc2cc1C(=O)NC1CCC(C)CC1 (stereo not given) as the compound, how does the Potency read?
The Potency was inconclusive: 14.1 µM [inhibitor, single point].

With O=C(NCc1cccs1)c1ccccc1C(=O)NCc1cccs1 as the compound, how does the Potency read?
The Potency was “inactive”.

With Cc1ccc(OCC(O)CN2CCN(c3ccc(C)cc3)CC2)cc1 (stereo not given) as the compound, how does the Potency read?
The Potency was inconclusive: 31.6 µM [inhibitor, single point].

For O=C(O)Cc1ccc(C(=O)c2cccs2)s1, which Potency is on record?
The Potency was “inactive”.

With CN(C)C(CNC(=O)C1CCN(S(=O)(=O)c2ccccc2C(F)(F)F)CC1)Cc1ccccc1 (stereo not given) as the compound, how does the Potency read?
Its Potency is “inactive”.

For CCOc1cc(C=O)ccc1OCc1cc(=O)n2cc(C)ccc2n1, which Potency is on record?
Its Potency is “inactive”.

For COc1ccc(C(C)=O)cc1CSc1nc2ccccc2o1, which Potency is on record?
The Potency was inconclusive: 31.6 µM [inhibitor, single point].

For OCCOCCn1c(C2CCCN2c2nc(-c3ccc(F)cc3)cs2)nc2cc(Cl)c(Cl)cc21 (stereo not given), which Potency is on record?
The Potency was inconclusive: 15.8 µM [inhibitor, single point].

With CC(=O)c1cccc(OCC(=O)N2CCN(c3ccc(C(F)(F)F)cn3)CC2)c1 as the compound, how does the Potency read?
Its Potency is inconclusive: 3.98 µM [inhibitor, partial curve].

With O=C(/C=C/c1cccc([N+](=O)[O-])c1)NCCSCc1ccc(Cl)cc1Cl as the compound, how does the Potency read?
Its Potency is inconclusive: 11.2 µM [inhibitor, single point].

Which Potency does the source give for COc1ccc(CNc2cccc(F)c2)cc1Br here?
Its Potency is inconclusive: 31.6 µM [inhibitor, single point].

With c1ccc(-c2csc3nnc(SCc4ccc5c(c4)OCCO5)n23)cc1 as the compound, how does the Potency read?
The Potency was inconclusive: 7.94 µM [inhibitor, partial curve, poor fit] and inconclusive: 31.6 µM [inhibitor, single point].

With CCN1CCN(c2cc(C)c3cc(NC(=O)c4ccc5c(c4)OCO5)ccc3n2)CC1 as the compound, how does the Potency read?
Its Potency is inconclusive: 11.2 µM [inhibitor, partial curve, poor fit].

For Cc1ccc(-c2nnc(CSc3nnc(COc4cccc5ccccc45)n3-c3ccccc3)o2)cc1, which Potency is on record?
Its Potency is inconclusive: 31.6 µM [inhibitor, single point].

For C=CCc1cccc(CNc2cnc3ccccc3c2)c1O, which Potency is on record?
The Potency was active: 7.94 µM.

With Brc1ccc(-c2csc(N/N=C/c3ccco3)n2)cc1 as the compound, how does the Potency read?
The Potency was inconclusive: 14.1 µM [inhibitor, partial curve].

With CCC(C)n1c(NC(=O)c2ccccc2)c(C#N)c2nc3ccccc3nc21 (stereo not given) as the compound, how does the Potency read?
Its Potency is inconclusive: 11.2 µM [inhibitor, partial curve].

Which Potency does the source give for Cc1nc(N2CCC3(CC2)OCCO3)c2nnn(Cc3ccccc3F)c2n1 here?
The Potency was inconclusive: 31.6 µM [inhibitor, single point].

Which Potency does the source give for COc1ccc(OC)c(Nc2nc(NCCC(C)C)nc(N)c2[N+](=O)[O-])c1 here?
Its Potency is inconclusive: 31.6 µM [inhibitor, single point].

For O=C(c1ccc(S(=O)(=O)NCc2ccco2)cc1)N1CCN(Cc2ccccc2F)CC1, which Potency is on record?
The Potency was inconclusive: 5.62 µM [inhibitor, partial curve].

Which Potency does the source give for O=c1[nH]c2ccccc2nc1/C=C/c1ccccc1 here?
The Potency was “inactive”.

With O=C(CN1CCC(Cc2ccccc2)CC1)N1CCc2ccccc2C1 as the compound, how does the Potency read?
The Potency was inconclusive: 14.1 µM [inhibitor, single point].

Which Potency does the source give for COC(=O)C1=C(C(=O)OC)[C@@H]2Nc3ccccc3[C@@]23C[C@@H](C(=O)OC)N(C(=O)c2ccco2)C3=N1 here?
Its Potency is “inactive”.

Which Potency does the source give for COc1cc(CNc2ccc(CNc3ncn[nH]3)cc2)ccc1OCc1ccccc1 here?
The Potency was inconclusive: 11.2 µM [inhibitor, single point].

For COc1cc(N=C2C(=O)N3c4c(cccc42)C(C)=CC3(C)C)cc(OC)c1, which Potency is on record?
Its Potency is “inactive”.

For Cc1ccc(NC(=O)CSCC(=O)N2CCN(c3cccc(C(F)(F)F)c3)CC2)cc1, which Potency is on record?
The Potency was “inactive”.

With CC[C@]1(C(=O)OC)[C@H]2C(=O)N(Cc3ccccc3)C(=O)[C@H]2[C@H]2CN(C)C(=NCc3ccccc3)N21 as the compound, how does the Potency read?
Its Potency is “inactive”.

For Cc1cc(C)n2nc(C(=O)N3CCN(c4ccc([N+](=O)[O-])cc4)CC3)nc2n1, which Potency is on record?
Its Potency is “inactive”.

For COc1ccc(N2CCN(C(=O)CN(C3CCCCC3)S(C)(=O)=O)CC2)cc1, which Potency is on record?
The Potency was “inactive”.

For CCOc1ccc(NC(=O)CN2C(=O)C(C)SC(C)C2=O)cc1 (stereo not given), which Potency is on record?
Its Potency is “inactive”.

For CS(=O)(=O)Nc1cccc(C2=NN(C(=O)c3ccccc3)C(c3cccs3)C2)c1 (stereo not given), which Potency is on record?
The Potency was inconclusive: 31.6 µM [inhibitor, single point].

For CCN(c1ccccc1)S(=O)(=O)c1ccc(Cl)c(NC(=O)Nc2ccc(Cl)cc2C#N)c1, which Potency is on record?
Its Potency is inconclusive: 12.6 µM [inhibitor, single point].

Which Potency does the source give for COc1cccc(CN(C)C(=O)Cn2cc(C)c(=O)[nH]c2=O)c1 here?
Its Potency is inconclusive: 31.6 µM [inhibitor, partial curve, poor fit].

Which Potency does the source give for O=C(Nc1ccc(N2CCN(C(=O)c3ccccc3)CC2)cc1)c1ccc2c(c1)OCO2 here?
The Potency was active: 22.4 µM.

With Cc1ccc(-c2cc(NC(=O)CCl)n(-c3ccccc3)n2)cc1 as the compound, how does the Potency read?
Its Potency is inconclusive: 22.4 µM [inhibitor, single point].

With O=c1c2ccccc2oc2ccc(-c3ccc4cc[nH]c4c3)cc12 as the compound, how does the Potency read?
Its Potency is active: 15.8 µM.

For COC(=O)CCC(=O)OC1(C)C(=O)C2=CN(CCc3ccccn3)C(c3ccc(OC)cc3)=CC2=C(Br)C1=O (stereo not given), which activity change, negative = inhibition is on record?
Its activity change, negative = inhibition is inactive: -5.94% [at 8.37 µM].

Which Potency does the source give for COc1cc(Nc2ccccc2Cl)c([N+](=O)[O-])nc1[N+](=O)[O-] here?
Its Potency is inconclusive: 11.2 µM [inhibitor, single point].

Which Potency does the source give for CN1CCN(c2ccccc2NC(=O)c2ccc(-c3cccc(Cl)c3)o2)CC1 here?
The Potency was inconclusive: 20 µM [inhibitor, single point].

With CCOC(=O)CC1(NC(=O)c2cc(COc3ccc(F)c(F)c3)on2)CCCCC1 as the compound, how does the Potency read?
Its Potency is inconclusive: 28.2 µM [inhibitor, single point].

With Cn1cccc1/C=N/NC(=O)c1ccncc1 as the compound, how does the Potency read?
The Potency was “inactive”.

Which Potency does the source give for CCOc1ccc(S(=O)(=O)N2CCC(C(=O)OC(C)C(=O)N(C)C3CCCCC3)CC2)cc1 (stereo not given) here?
Its Potency is inconclusive: 10 µM [inhibitor, partial curve].

Which Potency does the source give for O=C(NNS(=O)(=O)c1ccccc1)c1csc(-c2cccnc2)n1 here?
The Potency was “inactive”.

With Cc1ccccc1Cc1c(C)nc2c(C(=O)NCc3ccco3)cnn2c1C as the compound, how does the Potency read?
Its Potency is inconclusive: 31.6 µM [inhibitor, single point].

Which Potency does the source give for Cc1cnc(N)c2c(=O)oc3ccccc3c12 here?
The Potency was active: 6.31 µM.

Which Potency does the source give for COC(=O)c1ccc(S(=O)(=O)c2ccc(Cl)cc2)c(N)c1 here?
The Potency was “inactive”.

Which Potency does the source give for CCCc1cc(C(=O)N2CCCC(C(=O)c3cc(C)c(OC)c(C)c3)C2)n(C)n1 (stereo not given) here?
The Potency was inconclusive: 15.8 µM [inhibitor, single point].

Which Potency does the source give for O=C(c1ccccc1)N1CCN(C(=O)C2CC2)CC1 here?
Its Potency is “inactive”.

Which Potency does the source give for Cc1cc(OCC(=O)Nc2cccc(S(=O)(=O)N3CCCC3)c2)ccc1Cl here?
The Potency was inconclusive: 15.8 µM [inhibitor, single point].

Which Potency does the source give for CCOc1ccc(NC(=O)CSc2nc3nc4c(cc3c(=O)n2CC)COC(C)(C)C4)cc1 here?
Its Potency is active: 3.16 µM.

With COc1cc(NC(=O)c2ccc3c(=O)n(Cc4ccco4)c(=S)[nH]c3c2)cc(OC)c1OC as the compound, how does the Potency read?
Its Potency is inconclusive: 6.31 µM [inhibitor, partial curve].

With Cc1nn(-c2ccccc2)c(C)c1/C=N/NC(=O)CSc1nnc(-c2ccccc2)n1-c1ccc(Cl)cc1 as the compound, how does the Potency read?
Its Potency is inconclusive: 4.47 µM [inhibitor, full curve].

Which Potency does the source give for Cc1noc(C)c1CSCC(=O)NCCN1C(=O)S/C(=C\c2ccccc2F)C1=O here?
Its Potency is inconclusive: 20 µM [inhibitor, single point].

Which Potency does the source give for O=C(CCN1C(=O)C2C3C=CC(C3)C2C1=O)NCCc1ccccc1Cl (stereo not given) here?
Its Potency is “inactive”.

With Cc1ccc2nc(-c3ccccn3)c(NC3CCCC3)n2c1 as the compound, how does the Potency read?
The Potency was inconclusive: 14.1 µM [inhibitor, single point].

For COCCNC(=O)c1cc2c(-c3ccccc3F)nn(C)c2s1, which Potency is on record?
The Potency was inconclusive: 11.2 µM [inhibitor, single point].

Which Potency does the source give for CCOC(=O)CCC(=O)NCc1ccc2c(c1)cc(C)n2C here?
The Potency was “inactive”.

Which Potency does the source give for CCc1c(C)c2ccc(OC(C)C(=O)NC(Cc3c[nH]c4ccc(O)cc34)C(=O)O)c(C)c2oc1=O (stereo not given) here?
Its Potency is “inactive”.

For O=C(COC(=O)Cc1c[nH]c2ccccc12)Nc1ccccc1, which Potency is on record?
The Potency was “inactive”.

With Cc1noc(C)c1COc1cccc(C(=O)Nc2ccc(C#N)cc2)c1 as the compound, how does the Potency read?
Its Potency is inconclusive: 11.2 µM [inhibitor, partial curve].

For Cc1ccc(/C=C2\SC(=S)N(CC(=O)Nc3cccnc3)C2=O)cc1, which Potency is on record?
The Potency was inconclusive: 28.2 µM [inhibitor, single point].

For COc1cc(C(=O)Nc2nc3ccccc3[nH]2)cc(OC)c1OC, which Potency is on record?
Its Potency is “inactive”.

Which Potency does the source give for Cc1ccc(NC(=O)CSc2nc3sc(C)cc3c(=O)n2C)cc1 here?
The Potency was “inactive”.

For CCOC(=O)CSc1nnc(NCC(=O)OC)c(=O)[nH]1, which Potency is on record?
The Potency was “inactive”.

Which Potency does the source give for COC(=O)c1cc(C(=O)OCC(=O)c2ccc[nH]2)cc([N+](=O)[O-])c1 here?
The Potency was inconclusive: 7.94 µM [inhibitor, partial curve, poor fit].

With CCn1c2ccc(OC)cc2c2nc3ccccc3nc21 as the compound, how does the Potency read?
Its Potency is active: 7.94 µM.

With COc1ccc(Cl)cc1NC(=O)CN(C)C(=O)CCSc1ccc(C)cc1 as the compound, how does the Potency read?
The Potency was inconclusive: 31.6 µM [inhibitor, single point].

With Cc1ccc(NC(=S)NCCc2ccc(F)cc2)c(C)c1 as the compound, how does the Potency read?
The Potency was “inactive”.

With CC(=O)c1cccc(NC(=O)CSc2nc(N3CCCCC3)nc(N3CCCCC3)n2)c1 as the compound, how does the Potency read?
Its Potency is inconclusive: 11.2 µM [inhibitor, single point].

Which Potency does the source give for O=C(CCCNC(=O)/C(=C\c1ccccc1F)NC(=O)c1ccccc1)OCc1ccccc1 here?
The Potency was inconclusive: 7.08 µM [inhibitor, partial curve].
